Data: patent US20220153853A1 (JIANGSU HENGRUI MEDICINE, published 2022)

B1: ch1805-D (other)
heavy: HGEGTFTSDVSSYLEEEAAKEFVAWLVKGGGGGGGSGGGGSGGGGSEVQLQQSGPELVKPGASVKIPCKTSGYTFTDYNMDWVKQSHGRSLEWIGSIDPDNGGTIYNQKFKGKATLTVDKSSSTAYMELRSLTSEDTAVYYCTRDYYGSSSWFAYWGQGTLVTVSAASTKGPSVFPLAPCSRSTSESTAALGCLVKDYFPEPVTVSWNSGALTSGVHTFPAVLQSSGLYSLSSVVTVPSSSLGTKTYTCNVDHKPSNTKVDKRV[human IgG4 Fc with S228P F234A L235A (EU numbers) left out]
light: DVVMTQSPATLSVTPGDRVSLSCRASQSISDYLHWYQQKSHESPRLLIKYASQSISGIPSRFSGSGSGSDFTLSINSVEPEDVGVYYCQNGHSFPYTFGGGTKLEIKRTVAAPSVFIFPPSDEQLKSGTASVVCLLNNFYPREAKVQWKVDNALQSGNSQESVTEQDSKDSTYSLSSTLTLSKADYEKHKVYACEVTHQGLSSPVTKSFNRGEC
B2: ch1817-D (other)
heavy: HGEGTFTSDVSSYLEEEAAKEFVAWLVKGGGGGGGSGGGGSGGGGSEVQLVESGGDLVQPGRSMKLSCAASGFTFSNYYMAWVRQAPTKGLEWVASISTGGVNTYYRDSVKGRFTISRDNAKNNLYLQMDSLRSEETATYYCARHTTADYFYGIYFALDAWGQGTSVTVSSASTKGPSVFPLAPCSRSTSESTAALGCLVKDYFPEPVTVSWNSGALTSGVHTFPAVLQSSGLYSLSSVVTVPSSSLGTKTYTCNVDHKPSNTKVDKRV[human IgG4 Fc with S228P F234A L235A (EU numbers) left out]
light: QFTLTQPKSVSGSLRSTITIPCERSSGDIGDSYVNWYQQHLGRPPLNVIYADVQRPSEVSDRFSGSIDSSSNSASLTITNLQMDDEADYFCQSYDTNIDIIFGGGTKLTVLRTVAAPSVFIFPPSDEQLKSGTASVVCLLNNFYPREAKVQWKVDNALQSGNSQESVTEQDSKDSTYSLSSTLTLSKADYEKHKVYACEVTHQGLSSPVTKSFNRGEC
B3: ch1808-D (other)
heavy: HGEGTFTSDVSSYLEEEAAKEFVAWLVKGGGGGGGSGGGGSGGGGSQVQLQQSGAELARPGASVKLSCKASGDTFTTNGISWVKQRIGQGLEWIGEIYPRSGNTYYNENFKGKATLTADKSSTTAYMELRRLTSEDSAVYFCARSITSVIGADYFDYWGQGTTLTVSSASTKGPSVFPLAPCSRSTSESTAALGCLVKDYFPEPVTVSWNSGALTSGVHTFPAVLQSSGLYSLSSVVTVPSSSLGTKTYTCNVDHKPSNTKVDKRV[human IgG4 Fc with S228P F234A L235A (EU numbers) left out]
light: DIQMTQTTSSLSASLGDRVTISCRASQDISNYLNWYQKKPDGTVKLLIYYSSTLHSGVPSRFSGSGSGTDYSLTISNLEQEDIATYFCQQGNTFPWTFGGGTKLEIKRTVAAPSVFIFPPSDEQLKSGTASVVCLLNNFYPREAKVQWKVDNALQSGNSQESVTEQDSKDSTYSLSSTLTLSKADYEKHKVYACEVTHQGLSSPVTKSFNRGEC

Biological target: human GLP-1R (human, UniProt P43220 24-463)
Experiment: cell-based or functional assay

EC50 | Emax % | Binder
0.11 nM | 108% | B1
0.3 nM | 106% | B2
0.14 nM | 107% | B3
